Source: PubChem BioAssay AID1345082 (National Center for Advancing Translational Sciences (NCATS), 2018)
Screen size: about 94,000 compounds; about 4,000 (4.3%) were called active. The inconclusive results got no clear call from the source; some entries with a clear call stand among them for comparison. Calls come from the whole dose curve; as a rule, active = well fitted inhibition curve with a large enough effect; inconclusive = small, poorly fitted or top-dose-only effect; inactive = no such curve, though single readings can be large or run the other way. Potencies beside an inconclusive call are fits to weak or partial responses and may not hold up.
Potency is the fitted concentration of half-maximal effect; tags give direction and shape of the fitted curve.

Experiment: Cytotoxic Profiling in NIH 3T3 Cell Line of Diverse Libraries Using Quantitative High-Throughput Screening; note: nearly all actives have a fitted effect of over 55% in size
Conditions: NIH 3T3 viability, CellTiter-Glo ATP luminescence, 48-72 h; series mostly up to 96.7 µM
Summary of the method: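 Cytotoxicity is measured as loss of cellular ATP: NIH 3T3 cells (400/well) are exposed to compound for 48 or 72 hr at 37 °C, then CellTiter-Glo luminescence is imaged after 10 min at room temperature.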
With `CC(C)N1C[C@H](O)C[C@H]1c1nnc2n1CCN(C(=O)c1ccsc1)C2` the Potency was “inactive”. In the case of `CC1(c2noc(-c3ccccn3)n2)CCN(C(=O)C2CCN(C(=O)c3ccc(=O)[nH]c3)CC2)CC1`, the Potency is reported as inconclusive: 79.4 µM [inhibitor, partial curve, poor fit]. For `CNC(=O)CCC1CCN(C(=O)c2ccccc2F)CC1`, the Potency was “inactive”. For `COc1ccc(C(=O)N2CCC3(CC2)NC(=O)N(c2ccccc2)N3)cc1OC`, the Potency was inconclusive: 3.55 µM [inhibitor, full curve, poor fit]. For `O=c1[nH]c(N2CCOCC2)nc2c1CCN(Cc1ccccc1F)CC2`, the Potency was inconclusive: 50.1 µM [inhibitor, partial curve, poor fit]. With `COCC(=O)N1CCC(Oc2ccccc2C(=O)N(C)Cc2ncccc2C)CC1` the Potency was inconclusive: 79.4 µM [inhibitor, partial curve, poor fit]. For `O=C(N[C@H]1C[C@H]2C(=O)Nc3ccc(-c4cccs4)cc3C(=O)N2C1)c1ccccc1`, the Potency was inconclusive: 50.1 µM [inhibitor, full curve]. For `CN1CC(=O)N(c2ccc(Cl)cc2)Cc2c1ncnc2N1CCC(O)CC1`, the Potency was inconclusive: 70.8 µM [inhibitor, single point]. With `COCCCn1c(=O)c(C(=O)NCc2ccc(C(F)(F)F)cc2)nc2cccnc21` the Potency was inconclusive: 39.8 µM [inhibitor, partial curve]. In the case of `CN(C)c1ccc(-c2ccnc(N[C@H]3CO[C@H]4[C@@H]3OC[C@H]4OC(=O)Nc3cccc(C#N)c3)n2)cc1`, the Potency is reported as inconclusive: 25.1 µM [inhibitor, full curve, poor fit]. With `CC(C)C(=O)NCCc1noc(-c2ccccc2)n1` the Potency was “inactive”. With `COCC(=O)N(C)Cc1ccc(-c2ccccc2)cc1` the Potency was inconclusive: 56.2 µM [inhibitor, partial curve, poor fit]. With `CCCN1C(=O)Cc2cc(C(=O)NCc3ccccc3F)ccc21` the Potency was inconclusive: 50.1 µM [inhibitor, partial curve, poor fit]. In the case of `O=C(c1ccoc1)N1CCC(c2nc(-c3ccccc3)no2)C1` (stereo not drawn), the Potency is reported as inconclusive: 56.2 µM [inhibitor, partial curve, poor fit]. For `CC(=O)N1CCC(Cc2ccc(C(=O)N(C)Cc3cccnc3)cc2)CC1`, the Potency was inconclusive: 22.4 µM [inhibitor, partial curve]. For `COc1ccc(CN2C(=O)COC[C@H]2C(=O)Nc2ccc(OC)c(C(F)(F)F)c2)cc1`, the Potency was inconclusive: 50.1 µM [inhibitor, partial curve, poor fit]. In the case of `Cc1noc(-c2ccc(OC(F)(F)F)cc2)c1C(=O)NC(C)CCc1ccccc1` (stereo not drawn), the Potency is reported as inconclusive: 35.5 µM [inhibitor, partial curve]. For `COc1ccc(NC(=O)Cn2c(=O)c(-c3noc(C)n3)c3n(c2=O)CCCC3)cc1Cl`, the Potency was “inactive”. For `O=C(NCc1ccc(N2CCOCC2)cc1)c1cc2c(s1)CN(C1CC1)C2`, the Potency was inconclusive: 70.8 µM [inhibitor, single point]. With `CC(C)c1noc(CC2CCN(C(=O)c3cccc(N(C)C)c3)CC2)n1` the Potency was inconclusive: 39.8 µM [inhibitor, partial curve]. With `COCCCNC(=O)CC(c1ccc(Cl)cc1)c1c[nH]c2ccccc12` (stereo not drawn) the Potency was inconclusive: 50.1 µM [inhibitor, partial curve, poor fit]. In the case of `COc1cc(OC)cc(C(=O)N2CCC(n3cc(-c4nc(-c5ccccc5)no4)nn3)C2)c1` (stereo not drawn), the Potency is reported as inconclusive: 39.8 µM [inhibitor, partial curve, poor fit]. In the case of `C=CCOc1cccc(-c2nnc(CCC(=O)NCc3ccc4c(c3)OCO4)c(=O)[nH]2)c1`, the Potency is reported as inconclusive: 44.7 µM [inhibitor, partial curve, poor fit]. With `COc1ccc(-c2cn3cc(C(=O)N4CCOCC4)nc3s2)cc1` the Potency was inconclusive: 56.2 µM [inhibitor, partial curve, poor fit]. With `CCn1nc(CC(C)C)cc1C(=O)NCc1cc(-c2cccc(F)c2)no1` the Potency was inconclusive: 79.4 µM [inhibitor, single point]. For `Cc1cnc(C2CCN(Cc3ccccc3)C2)n1Cc1ccccc1` (stereo not drawn), the Potency was inconclusive: 50.1 µM [inhibitor, partial curve, poor fit]. In the case of `CCC(C)(C)C(=O)NCc1cc2c(nc1OC)CN(C1CCCC1)C2=O`, the Potency is reported as inconclusive: 39.8 µM [inhibitor, partial curve, poor fit]. In the case of `CN1CCCCC12Cc1ccccc1CN([S+](=O)([O-])c1ccccc1)C2` (stereo not drawn), the Potency is reported as “inactive”. With `Cc1noc2c(-c3ccc(N4CCOCC4)cc3)cc(-c3cccnc3)nc12` the Potency was inconclusive: 20 µM [inhibitor, full curve, poor fit]. With `O=C(NCC(F)F)C1CCN(C(=O)c2ccc(-c3cncnc3)cc2)CC1` the Potency was “inactive”. With `Clc1ccc(-c2nnc([C@H]3CCN(C4CCCCC4)C3)o2)cc1` the Potency was inconclusive: 100 µM [inhibitor, partial curve, poor fit]. With `COc1ccc(/C=C/c2ccc3c(c2)C(=O)N2CC[C@H](N)[C@H]2C(=O)N3)cc1` the Potency was inconclusive: 112 µM [inhibitor, partial curve, poor fit]. In the case of `O=C(c1cc(-c2ccccc2F)n[nH]1)N1CCC2(CCCN(Cc3ccccc3F)C2)C1` (stereo not drawn), the Potency is reported as inconclusive: 50.1 µM [inhibitor, partial curve, poor fit]. With `O=C(NC1CCN(c2cc(-c3cccs3)[nH]n2)C1)c1ccccc1Cl` (stereo not drawn) the Potency was inconclusive: 79.4 µM [inhibitor, partial curve, poor fit]. For `COc1ccc(NC(=O)Cn2c(N(C)Cc3ccccc3)nc(C)cc2=O)cc1`, the Potency was inconclusive: 39.8 µM [inhibitor, partial curve, poor fit]. In the case of `CCCn1c(C)c(CC(=O)N(C)Cc2cccnc2)c2c1CC(C)(C)CC2=O`, the Potency is reported as “inactive”. With `Cn1ncc2c(C(=O)NCCc3ccc(Cl)cc3)cc(-c3ccc(Cl)cc3Cl)nc21` the Potency was inconclusive: 50.1 µM [inhibitor, partial curve, poor fit]. In the case of `Cc1nn(-c2ccc(F)cc2)c(C)c1[C@@H]1C=C[C@@H](NCc2ccc(C(C)C)cc2)C1`, the Potency is reported as active: 10 µM.
